Reference: article PMC4336329 (PLoS ONE, 2015)
About 2,200 (0.71%) of roughly 310,000 compounds showed an effect of 50% or more. Effects have a minus sign here. The list shows a part of the results.

Each molecule was assayed against human ether-à-go-go-related gene (hERG) potassium channel (human, UniProt Q12809) (assay: primary screen, population patch clamp on CHO cells stably expressing hERG).
Sequence of human ether-à-go-go-related gene (hERG) potassium channel (Q12809 whole entry, looked up): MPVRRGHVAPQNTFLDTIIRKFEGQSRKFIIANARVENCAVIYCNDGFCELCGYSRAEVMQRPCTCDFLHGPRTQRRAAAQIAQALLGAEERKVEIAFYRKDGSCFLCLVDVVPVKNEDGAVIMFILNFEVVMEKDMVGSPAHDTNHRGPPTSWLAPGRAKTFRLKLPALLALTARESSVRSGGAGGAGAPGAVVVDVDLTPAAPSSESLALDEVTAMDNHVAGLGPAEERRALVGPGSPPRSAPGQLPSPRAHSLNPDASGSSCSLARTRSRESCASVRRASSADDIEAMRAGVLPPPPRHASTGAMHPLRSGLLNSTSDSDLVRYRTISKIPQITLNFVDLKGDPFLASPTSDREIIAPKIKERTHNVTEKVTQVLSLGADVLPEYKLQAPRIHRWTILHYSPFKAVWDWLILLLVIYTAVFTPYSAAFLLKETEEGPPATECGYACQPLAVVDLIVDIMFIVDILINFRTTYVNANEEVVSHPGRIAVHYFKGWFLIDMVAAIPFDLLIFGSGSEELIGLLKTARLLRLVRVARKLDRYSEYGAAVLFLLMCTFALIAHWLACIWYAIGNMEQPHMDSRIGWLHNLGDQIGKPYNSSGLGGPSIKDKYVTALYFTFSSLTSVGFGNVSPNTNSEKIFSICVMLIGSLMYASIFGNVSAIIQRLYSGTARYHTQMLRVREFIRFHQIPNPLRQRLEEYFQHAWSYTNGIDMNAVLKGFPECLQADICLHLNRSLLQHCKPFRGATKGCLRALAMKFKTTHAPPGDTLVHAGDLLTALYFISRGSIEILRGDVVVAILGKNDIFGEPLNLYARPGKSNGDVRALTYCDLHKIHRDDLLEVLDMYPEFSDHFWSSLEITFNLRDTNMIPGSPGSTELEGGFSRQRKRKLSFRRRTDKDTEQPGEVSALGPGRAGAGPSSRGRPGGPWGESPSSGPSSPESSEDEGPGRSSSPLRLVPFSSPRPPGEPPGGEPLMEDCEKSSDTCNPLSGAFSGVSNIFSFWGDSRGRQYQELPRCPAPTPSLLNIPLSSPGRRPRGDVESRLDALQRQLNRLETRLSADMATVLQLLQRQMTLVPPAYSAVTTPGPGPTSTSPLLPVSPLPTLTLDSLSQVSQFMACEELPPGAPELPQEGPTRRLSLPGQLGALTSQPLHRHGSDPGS

Row | Compound | hERG current change (%, negative = inhibition) at 1uM [%]
1 | Cc1nc2ccccn2c1C(=O)NN=C1CCN(C)CC1 | 13.6
2 | COC(=O)c1sc2nc3c(cc2c1N)CCCC3 | 13.7
3 | Cc1cc(=O)c(C(=O)Nc2cccc(C(=O)NC3CC3)c2)nn1-c1ccccc1Cl | 2.21
4 | C=CCNC(=O)Nc1cc(Cl)ccc1OC | 13.3
5 | CCN(Cc1nc(-c2ccc(Cl)cc2)no1)CC1CCCO1 (centres unmarked) | -8.78
6 | O=C(NNC(=S)Nc1ccccc1C(F)(F)F)c1ccc(Br)o1 | 7.31
7 | COC(=O)c1nc(N)sc1-c1ccccc1 | 9.7
8 | CCn1ccc(C(=O)NC2C(=O)N3C(C(=O)O)=C(C)CSC23)n1 (centres unmarked) | 5.82
9 | Cc1ccc(NC(=O)c2noc3c2CCCCC3)cc1C | -1.11
10 | CCOc1ccc(/C(O)=C2/C(=O)C(=O)N(CCCN3CCOCC3)C2c2ccc(C)cc2)cc1C (centres unmarked) | 21.2
11 | O=C(O)c1ncsc1-c1ccccc1 | 5.87
12 | CN(C)c1ccc(C=Nc2ccc(N(C)C)cc2)cc1 | 2.42
13 | CCOc1cc(C)c(Cl)cc1S(=O)(=O)N(CC)CC | 8.55
14 | CCCNC(=O)Cn1c(=O)/c(=C\c2ccc(-c3cccc([N+](=O)[O-])c3)o2)s/c1=C\C(=O)C(C)(C)C | 10.5
15 | O=C(CN(Cc1ccccc1F)S(=O)(=O)c1ccc(Cl)cc1)NCCCO | -2.78
16 | Cc1c(OC(C)C(=O)NCCN2CCOCC2)ccc2c3c(c(=O)oc12)CCCC3 (centres unmarked) | 6.74
17 | COc1ccc(Oc2cccc(Cl)c2CNC(=O)CCC(=O)O)cc1 | 5.82
18 | CCOc1cc(-c2conc2N)cc(OCC)c1OCC | -7.78
19 | CCOC(=O)/C=C1\Nc2ccccc2SC1=O | -3.13
20 | CCOCCCNC(=O)/C(C#N)=C/c1ccc(Cl)c([N+](=O)[O-])c1 | 7.63
21 | Cc1oc2c(C)c3oc(=O)c(CCC(=O)NCCCn4ccnc4)c(C)c3cc2c1C | -3.28
22 | CCCOc1cc(N(CC)CC)ccc1/C=C(/C#N)c1nc2ccc(C)cc2[nH]1 | 11.6
23 | CCCc1cc(=O)[nH]c(SCCOc2ccc(OCC)cc2)n1 | 11.7
24 | Cc1ccc2c(cnn2C(=O)CCC(=O)N2CCCCC2)c1 | 8.66
25 | Cc1ccc(C(=O)N/C(=C/c2ccc(N(C)C)cc2)C(=O)NCC2CCCO2)cc1 (centres unmarked) | 15.3
26 | Cc1ccc(C(=O)NC(N(C)C)C(Cl)(Cl)Cl)cc1 (centres unmarked) | 1.94
